# PubChem BioAssay AID1347073 (National Center for Advancing Translational Sciences (NCATS), 2019)
# In all, about 45,000 compounds went through this assay and about 200 (0.44%) were called active. Inconclusive results (about 7%) are left out. The call rests on the fitted dose curve; in most records, active means well fitted activation curve with a large enough effect; inconclusive means small, poorly fitted or top-dose-only effect; inactive means no such curve, though single readings can be large or run the other way. This is one part of the list.
# Experiment: qHTS of TDP-43 Inhibitors: NCGC Sytravon Library Screen; further: 0% is about no effect; nearly all actives have a fitted effect of over 55% in size
# Settings: yeast TDP-43 toxicity rescue, BacTiter-Glo growth, 24 h; series mostly up to 46.1 µM; growth rescue (activation): at the top concentration
# Method in brief: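 TDP-43-expressing yeast, pregrown in raffinose, seeded at OD600 0.02 in galactose medium with compound for 24 hr at 30 deg C. Growth read by BacTiter-Glo luminescence, so rescue of toxicity appears as activation.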
row,SMILES,growth rescue (activation)
1,CCOC(=O)C1=C(C)NC(C)=C(C(=O)OCC)C1C(=O)OCC(=O)NC(C)C,inactive: 9.85%
2,CCOC(=O)C1=C(C)NC(C)=C(C(=O)OCC)C1C(=O)OCC(=O)N(C)C,inactive: 9.69%
3,CCc1ccc(N2C(=O)CN(CC(=O)OC)C2=S)cc1,inactive: -12.6%
4,Cc1ccc(C(C(=O)NC(C)(C)C)N(Cc2ccco2)C(=O)CCC(=O)Nc2ccccn2)cc1 (stereo not drawn),inactive: -4.87%
5,O=C(NC1CCN(C(=S)Nc2ccc(Cl)cc2)CC1)c1ccco1,inactive: 4.69%
6,O=[N+]([O-])c1ccc(-c2nc(C(Cl)Cl)c3ccccc3n2)cc1,inactive: 0.332%
7,Cc1ccc(S(=O)(=O)Nc2ccc(Cl)cc2C(=O)c2ccccc2)cc1,inactive: -5%
8,CCc1ccccc1NC(=O)CSc1nnc(C2CC2)n1CC1CCCO1 (stereo not drawn),inactive: -0.428%
9,COc1ccc(/C(N)=N/OC(=O)C2CCC(=O)N2S(=O)(=O)c2ccc(C)cc2)cc1 (stereo not drawn),inactive: 6.93%
10,COCCSc1nnc(NC(=O)c2cc(OC)c(OC)cc2[N+](=O)[O-])s1,inactive: -8.37%
11,CC(=O)Nc1ccc(S(=O)(=O)N(C)c2ccc(OCCOc3ccccc3F)cc2)cc1,inactive: 12.8%
12,CC1(Oc2cccc(C#N)c2)CCN(Cc2csc3ccccc23)C1 (stereo not drawn),inactive: 4.29%
13,CC(C)(C)c1cc(CCC(=O)NNC(=O)c2ccco2)cc(C(C)(C)C)c1O,inactive: 4.12%
14,COc1cc(CN2C[C@@H](CO)O[C@@H](n3cnc4c(NC5CC5)ncnc43)C2)cc(OC)c1OC,inactive: 7.18%
15,CCCNC(=O)C1(C)CCN(Cc2noc(-c3ccccc3OC)n2)C1 (stereo not drawn),inactive: 11.3%
16,COc1ccc(S(=O)(=O)Nc2cc(C(=O)NCCCOC(C)C)ccc2N2CCOCC2)cc1,inactive: -18%
17,COc1ccc(CCC(=O)OCC(=O)NCc2ccc(OC)c(OC)c2)cc1OC,inactive: 26.1%
18,O=C(NCCc1ccccc1)Nc1ccc(Cl)cc1,inactive: 20.7%
19,CN(C)S(=O)(=O)c1cc(NC(=O)CNCc2ccccc2)ccc1Cl,inactive: -8.28%
20,CS(=O)(=O)Nc1ccccc1C(=O)NCc1ccccc1Cl,inactive: -6.02%
21,CNC(=O)N(C1=NCCCCC1)c1ccc(Br)cc1,inactive: 18%
22,O=C1c2ccccc2C(=O)N1c1ccc(S(=O)(=O)N2CCN(c3ccccc3)CC2)cc1,inactive: 15.3%
23,COC(=O)c1ccc(-c2ncc[nH]2)cc1,inactive: -14.4%

row,SMILES,growth rescue (activation)
1,Cc1ccc(NC(=O)CCNC(=O)c2ccc(Cl)cc2)cc1F,inactive: 10.6%
2,CSc1cccc(NC(=O)CSc2ncccc2C(=O)Oc2cccc([N+](=O)[O-])c2)c1,inactive: -2.43%
3,NCCc1c(-c2ccccc2)n(-c2ccccc2)c2ccccc12,inactive: -2.68%
4,COc1ccc(C(=O)NNC(=O)c2cccc(S(=O)(=O)N3CCOCC3)c2)cc1,inactive: 4.14%
5,Oc1ccc(-c2nc3ccc(Cl)cn3c2Nc2ccc(Cl)cc2)cc1,inactive: 11%
6,O=C(CSc1nnc(-c2ccncc2)o1)NCc1ccccc1Cl,inactive: 2.7%
7,COc1ccc(C(CNc2ccc(S(=O)(=O)N3CCCC3)cc2[N+](=O)[O-])N2CCCC2)cc1 (stereo not drawn),inactive: -24.1%
8,O=C(CCC(=O)N(CC(=O)NC1CCCC1)Cc1ccccc1)Nc1nccs1,inactive: 9.9%
9,CC1CC(C)CN(C(=O)Cn2nnc(-c3ccccc3)n2)C1 (stereo not drawn),inactive: 9.71%
10,CCOc1cccc(OCCCCN2CCOCC2)c1,inactive: -30.6%
11,COc1ccc(Cc2n[nH]c(=S)n2C)cc1Br,inactive: 6.99%
12,CC(NC(=O)COC(=O)Cc1ccc(Cl)cc1)c1ccccc1 (stereo not drawn),inactive: 11.1%
13,O=C(COC(=O)CCC(=O)N1CCOCC1)Nc1ccc(Br)cc1Br,inactive: -8.61%
14,CN(C(=O)CSc1nnc(-c2ccco2)n1N)C1CCCCC1,inactive: -7.34%
15,COc1ccccc1NC(=O)Nc1nnc(CC(=O)Nc2ccccc2C)s1,inactive: 13.5%
16,O=C(NCCCN1CCCC1=O)c1cc(-c2ccc(F)cc2)nc2ccccc12,inactive: 8.76%
17,O=C(Nc1ccc2[nH]c3c(c2c1)CCCC3)c1ccco1,inactive: 14.9%
18,Cn1cccc1-c1cc(C(=O)N/N=C/c2ccc(F)cc2)[nH]n1,inactive: -3.79%
19,Cc1cc(C)n(-c2nnc3c4ccccc4n(C)c3n2)n1,inactive: -11.1%
20,CCOc1ccccc1N1CCN(C(=O)NC(C)c2ccc(F)c(F)c2)CC1 (stereo not drawn),inactive: 17%
21,CCOc1ccc(C(=O)NC(=S)NC2CCCC2)cc1[N+](=O)[O-],inactive: 25.6%
22,CCCCn1c(SCC(=O)N2CCOCC2)nc2ccccc2c1=O,inactive: 11.3%
23,CCCCOc1ccc(C(C)NC(=O)CCS(=O)(=O)Cc2ccc(C)cc2)cc1 (stereo not drawn),inactive: -15.1%

row,SMILES,growth rescue (activation)
1,Cc1sc2nc(CC(=O)NN)[nH]c(=O)c2c1C,inactive: 8.63%
2,Cc1[nH]c2ccc(-c3n[nH]c(=S)n3Cc3ccccc3)cc2c1C,inactive: 21.8%
3,COc1ccc(OC)c(NC(=O)c2ccc(CN(c3cc(Cl)ccc3C)S(=O)(=O)c3ccccc3)cc2)c1,inactive: -15.4%
4,COc1ccc(NC(=O)C(C)N(C)Cc2ccc3ccccc3c2)cc1 (stereo not drawn),inactive: -5.86%
5,Cc1nc2cc(C(=O)OCC(=O)Nc3cccc(Cl)c3)ccc2n1-c1ccccc1,inactive: 17.9%
6,COCC1CCN(Cc2cn[nH]c2-c2ccc(OC)cc2F)C1 (stereo not drawn),inactive: -7.83%
7,FC(F)(F)c1ccc(Cl)c(N/N=C/c2ccc(N3CCOCC3)s2)c1,inactive: 6.72%
8,COc1cc(C(=O)NCCCNc2nc3cc(C)c(C)cc3cc2C#N)cc(OC)c1OC,inactive: -2.6%
9,CCOc1ccc(CCNC(=O)c2cc(C)nn2-c2ccccc2)cc1,inactive: 23.9%
10,Cc1ccc(-c2nc3ncccc3o2)cc1NC(=O)c1ccc2c(c1)OCO2,inactive: -0.247%
11,CC[C@@H](C)[C@H](NC(=O)Cc1c(C)c2c(cc(C)c3c(C)c(C)oc32)oc1=O)C(=O)O,inactive: -8.55%
12,Cc1cccc(N2CCN(C(=O)c3ccccn3)CC2C)c1 (stereo not drawn),inactive: 6.67%
13,CCOC(=O)CC1=NC(=O)CS1,inactive: 18.7%
14,C=C(C)CNC(=S)N/N=C/c1ccc(N2CCOCC2)cc1,inactive: 20.4%
15,CN(C)S(=O)(=O)N1CCN(c2ccc([N+](=O)[O-])c(NC3CC3)c2)CC1,inactive: -7.31%
16,O=C(CCc1ccc(S(=O)(=O)NC2CCCCC2)cc1)NCc1cccnc1,inactive: -15.4%
17,COc1ccccc1CNC(=O)c1cc(C(C)C)nc2ccccc12,inactive: 11%
18,Cc1ccc(S(=O)(=O)Nc2nc3n(n2)C(c2ccc(Cl)cc2)CC(=O)N3)cc1 (stereo not drawn),inactive: -4.95%
19,CNC(=O)NC(=O)C(c1ccccc1)N(C)CC1COc2ccccc2O1 (stereo not drawn),inactive: 3.67%
20,CC(Sc1ncccn1)C(=O)N1CCc2ccccc21 (stereo not drawn),inactive: -20.4%
21,O=C(COC(=O)CCC(=O)c1ccc(F)cc1)NCc1ccc(Cl)cc1,inactive: 12.8%
22,CC(=O)c1cccc(NC(=O)CC(C)n2ccnc2)c1 (stereo not drawn),inactive: -17.2%
